About 16,000 (7.3%) of roughly 220,000 compounds were called active. The shares of active, inactive and inconclusive entries below differ from those in the screen. Calls come from the whole dose curve; as a rule, active = well fitted inhibition curve with a large enough effect (not every such curve was filed as active); inconclusive = small, poorly fitted or top-dose-only effect, or another doubt; inactive = no such curve, though single readings can be large or run the other way. A potency beside an inconclusive call is a rough fit, not a confirmed value.
Target: Aldehyde dehydrogenase 1A1 (Homo sapiens) (UniProt P00352)
Experiment: qHTS Assay for Inhibitors of Aldehyde Dehydrogenase 1 (ALDH1A1);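 for activity, negative = inhibition: plate controls were no enzyme wells and a reference inhibitor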
Details: Purified ALDH1A1, NADH fluorescence, propionaldehyde substrate; series mostly up to 75.3 µM; activity, negative = inhibition: at the top concentration
Potency is the fitted concentration of half-maximal effect; tags give direction and shape of the fitted curve.

Sequence of UniProt P00352 (P00352 whole entry, looked up): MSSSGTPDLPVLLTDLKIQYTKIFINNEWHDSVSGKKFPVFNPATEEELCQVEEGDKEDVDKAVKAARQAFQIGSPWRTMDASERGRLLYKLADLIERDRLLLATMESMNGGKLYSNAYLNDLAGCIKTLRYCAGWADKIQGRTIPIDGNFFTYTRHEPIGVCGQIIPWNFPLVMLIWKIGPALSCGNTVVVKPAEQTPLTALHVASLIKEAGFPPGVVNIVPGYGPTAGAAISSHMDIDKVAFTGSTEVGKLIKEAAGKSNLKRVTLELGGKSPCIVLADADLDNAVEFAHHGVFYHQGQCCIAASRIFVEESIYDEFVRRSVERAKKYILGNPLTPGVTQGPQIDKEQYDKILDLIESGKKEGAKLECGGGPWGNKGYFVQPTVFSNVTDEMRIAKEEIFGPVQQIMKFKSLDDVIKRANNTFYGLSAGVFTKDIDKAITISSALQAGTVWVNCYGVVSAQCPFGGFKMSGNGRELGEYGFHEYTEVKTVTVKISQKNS

Potency, active:
CCOC(=O)CC(=O)CSc1ncnc2c1cnn2-c1ccccc1 22.4 µM
COc1ccccc1-c1nc(S(=O)(=O)c2ccc(Cl)cc2)c(N(C)C)o1 23.8 µM

Potency, inconclusive:
Cc1ccccc1NC(=O)COc1ccc(Br)cc1CNCCCO 39.8 µM [inhibitor, single point]
Cc1ccccc1Oc1ccc(-c2nc(N)nc(N)n2)cc1 17.8 µM [inhibitor, partial curve, poor fit]
Cc1ccc2nc3c(cc(C#N)c(=O)n3CC3CCCO3)c(=O)n2c1 (stereo not drawn) 12.6 µM [inhibitor, partial curve]
COc1cc(CCN2C(=O)c3cccc4cccc(c34)C2=O)c(S(=O)(=O)N2CCCCCC2)cc1OC 20 µM [inhibitor, partial curve]
COc1ccc(/C=N/NC(=O)c2ccc(N(C)S(=O)(=O)c3ccccc3)cc2)c(OC)c1 28.2 µM [inhibitor, partial curve]
O=C1C(=O)c2c(C(=O)c3ccccc3)coc2-c2ccccc21 22.4 µM [inhibitor, partial curve]
CC1(C)CC(=O)c2cc(C(=O)NC3CCSC3=O)c(=O)n(-c3ccc(Cl)cc3)c2C1 (stereo not drawn) 39.8 µM [inhibitor, single point]
CSc1ccc(C(C(C(=O)c2cccs2)N2CCOCC2)N2CCOCC2)cc1 (stereo not drawn) 39.8 µM [inhibitor, single point]
CCOC(=O)N1CCN(C(=O)C2CC(c3cc(OC)ccc3OC)=NO2)CC1 (stereo not drawn) 39.8 µM [inhibitor, single point]
CCCc1nn(C(=O)c2ccccc2)c2c1C(=O)CC(C)(C)C2 39.8 µM [inhibitor, single point]
COC(=O)c1ccc(C(=O)OC)c(NC(=O)COC(=O)c2ccc(OC)c(OC)c2OC)c1 3.98 µM [inhibitor, single point]
Cn1c(=O)c2c(nc(NCc3ccco3)n2Cc2ccc(Cl)cc2Cl)n(C)c1=O 20 µM [inhibitor, partial curve]

activity, negative = inhibition, inactive:
COc1cc(/C=C/c2cc(OC(C)=O)c3ccccc3n2)c(OC(C)=O)c([N+](=O)[O-])c1 3.68%
CCC(Sc1ncnc2c1c(-c1ccccc1)cn2-c1ccc(OC)cc1)C(=O)OC (stereo not drawn) -11.1%
CCC(Cc1ccccc1)NC(=O)C1=C(C)C(=O)OC12CCC(C)CC2 (stereo not drawn) 1.47%
Nc1cc(=O)[nH]c(SCC(=O)Nc2cccc(Cl)c2)n1 -1.52%
